The campaign covered roughly 290,000 compounds. About 2,100 (0.72%) were called active. The inconclusive results got no clear call from the source; some entries with a clear call stand among them for comparison. The call rests on the fitted dose curve; in most records, active means well fitted inhibition curve with a large enough effect; inconclusive means small, poorly fitted or top-dose-only effect, or effect the other way; inactive means flat fitted curve, though single readings scatter. A potency beside an inconclusive call is a rough fit, not a confirmed value.
Each compound was assayed against Fructose-bisphosphate aldolase (Giardia intestinalis (strain ATCC 50803 / WB clone C6)) (UniProt A8B2U2) (assay: qHTS Assay for Inhibitors of Fructose-1,6-bisphosphate Aldolase from Giardia Lamblia). Conditions: purified Giardia FBPA; activity, negative = inhibition: at 59.6 µM (top of the series) unless noted.
In short: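 Giardia FBPA (40 nM reagent) was preincubated 10 min at RT with compound (up to 57.5 uM final), then substrate plus GAPDH/TPI/NAD/arsenate coupling system with diaphorase/resazurin was added; resorufin fluorescence (525/598 nm) was read after 20 min.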
Further: nearly all actives have a fitted effect of over 55% in size.
On the % scale 0 is the no-effect control and ±100 the full control effect; potency means the concentration at half of the fitted maximal effect; tags describe the fitted curve by direction and shape.

Chain of UniProt A8B2U2 (A8B2U2 whole entry, looked up): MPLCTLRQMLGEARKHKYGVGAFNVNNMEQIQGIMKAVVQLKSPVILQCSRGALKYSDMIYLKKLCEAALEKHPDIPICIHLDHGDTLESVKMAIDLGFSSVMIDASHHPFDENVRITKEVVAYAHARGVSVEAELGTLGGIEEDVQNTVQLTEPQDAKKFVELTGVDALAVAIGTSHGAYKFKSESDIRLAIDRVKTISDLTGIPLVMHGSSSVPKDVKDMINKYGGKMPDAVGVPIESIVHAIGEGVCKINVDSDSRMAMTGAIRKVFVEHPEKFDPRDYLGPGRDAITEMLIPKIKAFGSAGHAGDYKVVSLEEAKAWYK

SMILES | Potency | activity, negative = inhibition
NC(=O)C1CCCN(C(=O)Nc2cccc3ccccc23)C1 (stereo not drawn) | inactive | 
COc1ccc(C2C=C(C)Nc3nc4ccccc4n32)cc1 (stereo not drawn) | inactive | 
CCN1CCN(CCOc2ccccc2-c2ccccc2)CC1 | inconclusive: 22.3 µM [inhibitor, partial curve] | 
O=C(COC(=O)c1cc([N+](=O)[O-])ccc1Cl)NC1CCCC1 | inactive | 
Cc1ccc(C2=NN(C3=NN=C(N)Cc4ncnn43)C(O)(C(F)(F)F)C2)cc1 (stereo not drawn) | inconclusive: 2.81 µM [inhibitor, single point] | 
O=C(NC(=S)Nc1ccccc1Br)c1cccnc1 | active: 6.31 µM | 
CC(=O)N=Cc1c(C)c(C#N)c(=O)n(C)c1O | active: 8.89 µM | 
COc1cc(/C=C(/C#N)c2nc3ccccc3[nH]2)ccc1OCC(=O)Nc1ccccc1C | inactive | 
CCn1cc(C(=O)O)c(=O)c2cnc(N3CCN(C(=S)Nc4ccccc4)CC3)nc21 | inconclusive: 19.9 µM [inhibitor, single point] | 
CC1(C)CC(CCNS(=O)(=O)c2ccccc2)(c2ccccc2)CCO1 (stereo not drawn) | inactive | 
COc1cc(C(=O)ON=C2C(C)=CC(=O)C=C2C)cc(OC)c1OC | inconclusive: 7.06 µM [inhibitor, full curve] | 
O=C1NC(=O)/C(=C/c2ccc(-c3cc(C(=O)O)ccc3Cl)o2)S1 | active: 31.6 µM | 
CCN(CC)CCNCC1C(=O)O[C@@H]2C[C@@]3(C)CCC[C@H](C)C3=C[C@H]12 (stereo partly drawn) | inconclusive: 17.8 µM [inhibitor, partial curve] | 
O=C(COC(=O)c1ccc(-c2ccc([N+](=O)[O-])cc2)o1)NC(=O)NC12CC3CC(CC(C3)C1)C2 | inactive | 
CN(C)/C=N/C1=C(C#N)C(c2cccs2)c2ccc3ccccc3c2O1 (stereo not drawn) | inconclusive: 17.7 µM [inhibitor, partial curve] | 
COC(=O)c1ccc(NC(=S)NC(=O)c2c(-c3ccccc3)noc2C)cc1 | inconclusive: 15.8 µM [inhibitor, partial curve] | 
NS(=O)(=O)c1ccc(N=Nc2ccc(=O)[nH]c2O)cc1 | active: 5.61 µM | 
CCN(c1ccccc1)S(=O)(=O)c1ccc(Cl)c(NC(=O)CN(C)C2CCN(C)CC2)c1 | inconclusive: 19.9 µM [inhibitor, partial curve] | 
Cc1ccccc1NC(=O)NCCCN1CCCC1 | inconclusive: 22.3 µM [inhibitor, single point] | 
O=C(O)[C@H]1O[C@@H](Oc2ccc3ccc(=O)oc3c2)[C@H](O)[C@@H](O)[C@@H]1O | inactive | 
O=[N+]([O-])c1cc2oc3c(c2c(C=NCc2ccncc2)c1O)CCCC3 | inconclusive: 14.1 µM [inhibitor, partial curve] | 
CCOc1ccc(C(C)=O)cc1Cc1c(O)[nH]c(=S)[nH]c1=O | active: 22.4 µM | 
Cc1ccc(N=Cc2nc(-c3ccco3)oc2O)cc1 | inactive | 
CCOc1cc(N2CCOCC2)c(OCC)cc1NC1=NCCCCC1 | inconclusive: 7.92 µM [inhibitor, partial curve] | 
CCOC(=O)c1c(C)oc2c1c(C=NCc1ccccn1)c(O)c1ccccc12 | inconclusive: 0.5 µM [inhibitor, full curve] | 

SMILES | Potency | activity, negative = inhibition
COc1ccccc1NS(=O)(=O)c1ccc2nc(CCl)[nH]c2c1 | inconclusive: 25.1 µM [inhibitor, single point] | 
CCOC(=O)Cn1nnnc1C(CC)N(Cc1cccs1)Cc1cc2cc(C)ccc2[nH]c1=O (stereo not drawn) | inactive | 
CC(C)C(=O)NN(C(=O)C(C)C)c1nc2ccccc2s1 | inactive | 
O=C(O)CCCCCNS(=O)(=O)c1cccc2c1C(=O)c1ccccc1C2=O | inconclusive: 1.58 µM [inhibitor, full curve, poor fit] | 
Nc1c(/C=C2/C=CC(=O)C(O)=C2)c(=O)nc2sc(CC(=O)N3CCCC3)nn12 | active: 7.94 µM | 
COC(=O)C1C(O)CC[C@H]2CN3CCc4c([nH]c5ccccc45)C3C[C@H]12 (stereo partly drawn) | inconclusive: 6.29 µM [inhibitor, partial curve] | 
COc1cc(/C=C(/C(=O)c2cccs2)c2nc3ccccc3[nH]2)cc(OC)c1O | inconclusive: 35.4 µM [inhibitor, single point] | 
COc1cc(-c2nc3ccccn3c2/N=C/c2cccc(OC)c2O)ccc1O | inconclusive: 17.7 µM [inhibitor, partial curve] | 
O=C1NC(=O)N(c2ccccc2)C1=O | inconclusive: 35.5 µM [inhibitor, partial curve] | 
CC(O)CN(CCC(N)=O)CCC(N)=O (stereo not drawn) | inconclusive: 15.8 µM [inhibitor, partial curve] | 
O=C(NCc1ccc(F)cc1)N[C@@H](Cc1ccccc1)C(=O)O | inconclusive: 17.7 µM [activator, single point] | 
COc1cccc2c1C(=O)c1c(O)c3c(c(O)c1C2=O)C[C@@](O)(C(=O)CO)C[C@@H]3OC1C[C@@H](N)[C@H](O)[C@H](C)O1 (stereo partly drawn) | inconclusive: 15.8 µM [inhibitor, partial curve] | 
COc1cc(/C=C2\SC(c3ccccc3)=NC2=O)cc(Cl)c1O | active: 5.61 µM | 
COC(=O)/C=C1/S/C(=N/NC(=O)c2ccccc2)NC1=O | inconclusive: 12.6 µM [inhibitor, partial curve] | 
COc1cc(C2N(c3ccccc3)CCN2c2ccccc2)cc(OC)c1OC | inconclusive: 44.6 µM [inhibitor, single point] | 
Cc1c(C(=O)N2CCCCC2C)sc2nc3n(c(=O)c12)CCC3 (stereo not drawn) | inactive | 
CC(C)CCNC(=O)c1cc(C(=O)c2cc(F)ccc2O)cn(CCC(C)C)c1=O | inactive | 
CCCNC(=S)N1CCN(C)CC1 | inconclusive: 12.6 µM [inhibitor, partial curve] | 
CC1CN(CCCOc2ccccc2-c2ccccc2)CC(C)O1 (stereo not drawn) | inconclusive: 19.9 µM [inhibitor, partial curve] | 
O=C(/C=C/c1cccc([N+](=O)[O-])c1)NC(=S)Nc1ccccc1C(=O)O | inconclusive: 15.8 µM [inhibitor, single point] | 
CC1CN(S(=O)(=O)c2ccc(C(=O)Nc3nnc(-c4ccc5c(c4)CCCC5)o3)cc2)CC(C)O1 (stereo not drawn) | inconclusive: 8.89 µM [activator, partial curve] | 
CCN1CCN(CCOCCOc2ccccc2)CC1 | active: 25.1 µM | 
CCCN1CCN(C(=O)c2oc3ccccc3c2NC(=O)C2CC2)CC1 | inactive | 
COc1ccc(CNC(=O)CSc2nnc(C)s2)cc1 | inactive | 
CCC/C(O)=C1\C(=O)CCCC1=NC(C)C(=O)O (stereo not drawn) | inconclusive: 39.7 µM [activator, single point] | 

SMILES | Potency | activity, negative = inhibition
Oc1ccc(C=Nc2ccc3ncccc3c2)c(O)c1 | inconclusive: 0.5 µM [inhibitor, full curve] | 
N#CC1(C#N)C2=C(CCCC2)NC(c2ccccc2)C1(C#N)C#N (stereo not drawn) | inconclusive: 9.98 µM [inhibitor, partial curve] | 
N#CCSc1nc2c(sc(=S)n2Cc2ccco2)c(=O)n1-c1ccc(F)cc1 | inactive | 
CCC(=O)c1ccc(O)c(CC=C(C)C)c1 | inactive | 
CCOC(=O)[C@]1(C(NC(=O)OC)c2cccc(C)c2)CCCC1=O (stereo partly drawn) |  | inactive: -1.06% [at 12.9 µM]
CS(=O)(=O)Nc1nc2n(n1)C(c1ccccc1)CC(c1ccccc1)N2 (stereo not drawn) | inconclusive: 1.12 µM [inhibitor, partial curve] | 
COc1ccc(-c2cnc(NCc3cc4c(cc3[N+](=O)[O-])OCO4)n2C)cc1 | inconclusive: 22.3 µM [inhibitor, partial curve] | 
CC(C)Oc1ccc(C(=O)NCc2cccs2)cc1 | inactive | 
COc1cccc(CSc2nccn2C)c1 | inconclusive: 31.6 µM [inhibitor, single point] | 
CCOC(=O)C1(CC2CCCCO2)CCN(C(=O)Nc2ccccc2CC)CC1 (stereo not drawn) | inactive | 
CN(C)S(=O)(=O)c1cccc(-c2nnc(SCCNCCO)n2-c2ccc(F)cc2)c1 | inconclusive: 15.8 µM [inhibitor, partial curve] | 
O=C(O)c1ccc(CSc2ncnc3c2cnn3Cc2ccccc2)cc1 | inconclusive: 17.7 µM [activator, single point] | 
CCc1c(C)sc(NC(=O)c2cc(C)on2)c1C#N | inactive | 
CCc1ccc(CNC(=O)CCC(=O)n2ncc3cc(C)ccc32)cc1 | inactive | 
O=C(/C=C/c1ccccc1)NC(=S)N1CCSCC1 | inconclusive: 5 µM [inhibitor, single point] | 
CN(C)c1ccc(O)c2c1CC1CC3[C@@H](N(C)C)C(=O)C(C(N)=O)=C(O)[C@]3(O)C(=O)C1=C2O (stereo partly drawn) | inconclusive: 19.9 µM [inhibitor, partial curve] | 
CCOC(=O)CN1C=C(c2ccc3ccccc3n2)C(C[N+](=O)[O-])c2ccccc21 (stereo not drawn) | inconclusive: 17.7 µM [inhibitor, partial curve] | 
CN(C)CCCCOc1ccccc1F | active: 19.9 µM | 
CC(C)N1CCN(C(=O)c2cccc(Cl)c2)CC1 | inconclusive: 28.2 µM [inhibitor, partial curve] | 
FC(F)(F)c1ccc(CNCCc2ccc3c(c2)OCO3)cc1 | inconclusive: 15.8 µM [inhibitor, partial curve] | 
CN(/C=C/C(=C\C=[N+](C)c1ccccc1)OCCCS(=O)(=O)[O-])c1ccccc1 | inconclusive: 15.8 µM [inhibitor, partial curve] | 
Cn1c(SCC(=O)c2ccccc2)nnc1-c1cnccn1 | active: 20 µM | 
COCc1[nH]nc2c1C(c1cc(OC)c(O)c(OC)c1)C(C#N)=C(N)O2 (stereo not drawn) | inconclusive: 22.4 µM [inhibitor, partial curve] | 

Reference: PubChem BioAssay AID2451 (National Center for Advancing Translational Sciences (NCATS), 2010)
